In the supplement of paper PMC8728848:
The other results are listed elsewhere or left out.

Columns and labels:
Experiment in all cases: glycan array binding signal (z-score within array); higher = stronger binding
Conditions in all cases: glycan notation: IUPAC condensed, linker removed
[1] = biological target: Gal(a1-3)Gal(b1-3)GlcNAc
How it was run: (§1)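 The Consortium for Functional Glycomics database supplied 3228 glycan arrays, of which those lacking an available protein sequence were dropped. The binding signal, a within-array Z-score, was averaged across arrays of the same protein sequence and across linkers. Negative scores can be read as non-binding.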

[2] = biological target: Gal(a1-3)Gal(b1-3)GlcNAc(b1-2)Man
How it was run: as §1

[3] = biological target: Gal(a1-3)Gal(b1-3)GlcNAc(b1-2)Man(a1-3)[Gal(a1-3)Gal(b1-3)GlcNAc(b1-2)Man(a1-6)]Man(b1-4)GlcNAc(b1-4)GlcNAc
How it was run: as §1

[4] = biological target: Gal(a1-3)Gal(b1-3)GlcNAc(b1-3)GalNAc
How it was run: as §1

[5] = biological target: Gal(a1-3)Gal(b1-3)GlcNAc(b1-6)GalNAc
How it was run: as §1

[6] = biological target: Gal(a1-3)Gal(b1-3)[Fuc(a1-4)]GlcNAc(b1-2)Man(a1-3)[Gal(a1-3)Gal(b1-3)[Fuc(a1-4)]GlcNAc(b1-2)Man(a1-6)]Man(b1-4)GlcNAc(b1-4)GlcNAc
How it was run: as §1

[7] = biological target: Gal(a1-3)Gal(b1-4)Glc
How it was run: as §1

[8] = biological target: Gal(a1-3)Gal(b1-4)GlcNAc
How it was run: as §1

[9] = biological target: Gal(a1-3)Gal(b1-4)GlcNAc(b1-2)Man
How it was run: as §1

[10] = biological target: Gal(a1-3)Gal(b1-4)GlcNAc(b1-2)Man(a1-3)[Gal(a1-3)Gal(b1-4)GlcNAc(b1-2)Man(a1-6)]Man(b1-4)GlcNAc(b1-4)GlcNAc
How it was run: as §1

[11] = biological target: Gal(a1-3)Gal(b1-4)GlcNAc(b1-3)GalNAc
How it was run: as §1

[12] = biological target: Gal(a1-3)Gal(b1-4)GlcNAc(b1-6)GalNAc
How it was run: as §1

[13] = biological target: Gal(a1-3)Gal(b1-4)[Fuc(a1-3)]GlcNAc
How it was run: as §1

[14] = biological target: Gal(a1-3)Gal(b1-4)[Fuc(a1-3)]GlcNAc(b1-2)Man(a1-3)[Gal(a1-3)Gal(b1-4)[Fuc(a1-3)]GlcNAc(b1-2)Man(a1-6)]Man(b1-4)GlcNAc(b1-4)GlcNAc
How it was run: as §1

[15] = biological target: Gal(a1-3)GalNAc
How it was run: as §1

[16] = biological target: Gal(a1-3)[Gal(a1-4)]Gal(b1-4)GlcNAc
How it was run: as §1

[17] = biological target: Gal(a1-4)Gal(b1-3)GlcNAc(b1-2)Man(a1-3)[Gal(a1-4)Gal(b1-3)GlcNAc(b1-2)Man(a1-6)]Man(b1-4)GlcNAc(b1-4)GlcNAc
How it was run: as §1

[18] = biological target: Gal(a1-4)Gal(b1-4)Glc
How it was run: as §1

[19] = biological target: Gal(a1-4)Gal(b1-4)GlcNAc
How it was run: as §1

[20] = biological target: Gal(a1-4)Gal(b1-4)GlcNAc(b1-2)Man(a1-3)[Gal(a1-4)Gal(b1-4)GlcNAc(b1-2)Man(a1-6)]Man(b1-4)GlcNAc(b1-4)GlcNAc
How it was run: as §1

[21] = biological target: Gal(a1-4)Gal(b1-4)GlcNAc(b1-3)Gal(b1-4)Glc
How it was run: as §1

[22] = biological target: Gal(a1-4)GlcNAc
How it was run: as §1

[23] = biological target: Gal(a1-6)Glc
How it was run: as §1

[24] = biological target: Gal(b1-2)Gal
How it was run: as §1

[25] = biological target: Gal(b1-3)Gal
How it was run: as §1

[26] = biological target: Gal(b1-3)Gal(b1-4)GlcNAc
How it was run: as §1

[27] = biological target: Gal(b1-3)GalNAc
How it was run: as §1

[28] = biological target: Gal(b1-3)GalNAc(a1-3)[Fuc(a1-2)]Gal(b1-4)Glc
How it was run: as §1

[29] = biological target: Gal(b1-3)GalNAc(a1-3)[Fuc(a1-2)]Gal(b1-4)GlcNAc
How it was run: as §1

[30] = biological target: Gal(b1-3)GalNAc(b1-3)Gal
How it was run: as §1

[31] = biological target: Gal(b1-3)GalNAc(b1-3)Gal(a1-4)Gal(b1-4)Glc
How it was run: as §1

[32] = biological target: Gal(b1-3)GalNAc(b1-4)Gal(b1-4)Glc
How it was run: as §1

[33] = biological target: Gal(b1-3)GalNAc(b1-4)[Neu5Ac(a2-3)]Gal(b1-4)Glc
How it was run: as §1

[34] = biological target: Gal(b1-3)GlcNAc
How it was run: as §1

[35] = biological target: Gal(b1-3)GlcNAc(a1-3)Gal(b1-4)GlcNAc
How it was run: as §1

[36] = biological target: Gal(b1-3)GlcNAc(a1-6)Gal(b1-4)GlcNAc
How it was run: as §1

[37] = biological target: Gal(b1-3)GlcNAc(b1-2)Man
How it was run: as §1

[38] = biological target: Gal(b1-3)GlcNAc(b1-2)Man(a1-3)[Gal(b1-3)GlcNAc(b1-2)Man(a1-6)]Man(b1-4)GlcNAc(b1-4)GlcNAc
How it was run: as §1

B1: Na-CTL-1 (Necator americanus) (protein)
chain: MQRSFLLLLVVLAGAWAVNTTIPLKLMGGFTPMKYQCVGRVSDIWADVLFLIESSDMITKSGFRQVIAFITATTKKMTIGQDEKQTRVGFITYGEEAKLIYDLDHWRSTEKLSDLVQKIPYVKSSGTNIAAAIALANKVFNSPTHRPNVPKVMVIVANGLKKGSQNPIPVATAFKDFGGIIITIEYTQYDNIQVPILKKIASEGYNIRSNDEDFSVRTLTNMLLQANCFCPDHYVPFRVNNPEFGCFVTAKIPSMWRDAAEMCRAVEEGKLVKVENEEKAAFIMKLVGPKKEAWIGLRYYGNKFQWTDGTKLNADDFNLWPEDIKELNGPHCVSMYQDQKDKKYYWRAGKCLEDMRYVCEVQPCSASNYCSEPVFMYRQKHRALLPAPPPPPN
- glycan array binding signal (z-score) [1]: 0.073
- glycan array binding signal (z-score) [2]: 0.192
- glycan array binding signal (z-score) [3]: -0.139
- glycan array binding signal (z-score) [4]: -0.222
- glycan array binding signal (z-score) [5]: -0.267
- glycan array binding signal (z-score) [6]: -0.137
- glycan array binding signal (z-score) [7]: 1.29
- glycan array binding signal (z-score) [8]: -0.05
- glycan array binding signal (z-score) [9]: -0.51
- glycan array binding signal (z-score) [10]: 0.692
- glycan array binding signal (z-score) [11]: -0.272
- glycan array binding signal (z-score) [12]: 0.049
- glycan array binding signal (z-score) [13]: -0.132
- glycan array binding signal (z-score) [14]: -0.248
- glycan array binding signal (z-score) [15]: 0.042
- glycan array binding signal (z-score) [16]: 1.4
- glycan array binding signal (z-score) [17]: -0.549
- glycan array binding signal (z-score) [18]: 0.048
- glycan array binding signal (z-score) [19]: 0.656
- glycan array binding signal (z-score) [20]: 0.562
- glycan array binding signal (z-score) [21]: -0.215
- glycan array binding signal (z-score) [22]: -0.289
- glycan array binding signal (z-score) [23]: -0.265
- glycan array binding signal (z-score) [24]: -0.582
- glycan array binding signal (z-score) [25]: -0.126
- glycan array binding signal (z-score) [26]: 0.592
- glycan array binding signal (z-score) [27]: -0.022
- glycan array binding signal (z-score) [28]: -0.415
- glycan array binding signal (z-score) [29]: -0.408
- glycan array binding signal (z-score) [30]: -0.36
- glycan array binding signal (z-score) [31]: -0.55
- glycan array binding signal (z-score) [32]: -0.243
- glycan array binding signal (z-score) [33]: -0.244
- glycan array binding signal (z-score) [34]: -0.455
- glycan array binding signal (z-score) [35]: -0.359
- glycan array binding signal (z-score) [36]: 0.138
- glycan array binding signal (z-score) [37]: -0.258
- glycan array binding signal (z-score) [38]: -0.287
